# According to PubChem BioAssay AID504332 (National Center for Advancing Translational Sciences (NCATS), 2011):
# The whole screen tested about 350,000 compounds, of which about 31,000 (8.9%) were called active. The inconclusive results got no clear call from the source; some entries with a clear call stand among them for comparison. The call rests on the fitted dose curve; in most records, active means well fitted inhibition curve with a large enough effect; inconclusive means small, poorly fitted or top-dose-only effect; inactive means no such curve, though single readings can be large or run the other way. Where the call is inconclusive, the potency comes from a doubtful curve fit. Some compounds were tested as several samples or in several runs, with calls that do not always agree.
# Biological target: Histone-lysine N-methyltransferase EHMT2 (Homo sapiens) (UniProt Q96KQ7)
# Sequence of UniProt Q96KQ7 (Q96KQ7 whole entry, looked up): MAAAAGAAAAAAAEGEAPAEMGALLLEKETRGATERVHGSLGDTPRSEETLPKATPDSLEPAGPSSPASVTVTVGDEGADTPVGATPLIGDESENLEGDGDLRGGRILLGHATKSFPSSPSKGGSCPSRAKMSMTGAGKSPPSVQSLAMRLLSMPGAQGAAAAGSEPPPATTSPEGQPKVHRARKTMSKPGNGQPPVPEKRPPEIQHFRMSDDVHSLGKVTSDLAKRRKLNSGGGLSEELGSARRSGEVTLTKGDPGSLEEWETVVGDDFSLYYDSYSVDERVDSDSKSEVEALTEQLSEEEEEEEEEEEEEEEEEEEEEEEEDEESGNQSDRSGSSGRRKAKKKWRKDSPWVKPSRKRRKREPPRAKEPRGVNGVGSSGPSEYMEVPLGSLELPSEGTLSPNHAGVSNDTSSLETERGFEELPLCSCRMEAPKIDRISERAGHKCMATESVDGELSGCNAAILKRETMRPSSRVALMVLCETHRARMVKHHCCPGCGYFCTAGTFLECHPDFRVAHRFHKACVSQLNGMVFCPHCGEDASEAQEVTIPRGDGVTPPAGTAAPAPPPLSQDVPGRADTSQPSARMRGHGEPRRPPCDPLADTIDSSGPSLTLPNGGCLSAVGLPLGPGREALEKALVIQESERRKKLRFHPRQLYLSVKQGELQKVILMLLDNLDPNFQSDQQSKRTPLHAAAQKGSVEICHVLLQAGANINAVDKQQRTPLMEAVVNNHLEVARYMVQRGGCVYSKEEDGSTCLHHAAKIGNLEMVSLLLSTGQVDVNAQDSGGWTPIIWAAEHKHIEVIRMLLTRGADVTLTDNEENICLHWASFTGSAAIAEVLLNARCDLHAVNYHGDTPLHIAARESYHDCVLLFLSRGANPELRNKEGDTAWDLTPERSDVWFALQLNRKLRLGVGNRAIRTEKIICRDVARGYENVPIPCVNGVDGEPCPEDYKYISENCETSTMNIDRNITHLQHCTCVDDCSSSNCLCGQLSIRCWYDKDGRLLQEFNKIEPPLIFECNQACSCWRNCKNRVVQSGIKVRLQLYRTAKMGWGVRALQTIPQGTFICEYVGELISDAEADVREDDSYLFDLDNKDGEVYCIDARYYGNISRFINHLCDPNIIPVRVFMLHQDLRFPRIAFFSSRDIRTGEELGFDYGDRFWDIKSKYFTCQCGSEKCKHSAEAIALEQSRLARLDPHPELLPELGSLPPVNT
# Experiment: qHTS Assay for Inhibitors of Histone Lysine Methyltransferase G9a; further: nearly all actives have a fitted effect of over 75% in size
# Details: G9a H3K9 monomethylation, AlphaScreen, 2 h; activity, negative = inhibition: at 59 µM (top of the series) unless noted
# Outline: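 Chemiluminescent proximity detection of H3K9 monomethylation, read after 10 min bead incubation in the dark. Reaction: 20 nM G9a, 500 nM biotin-H3K9 peptide, 20 uM SAM cofactor, 2 h, room temperature, following 15 min enzyme-compound preincubation.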
# On the % scale 0 is the no-effect control and ±100 the full control effect; potency means the concentration at half of the fitted maximal effect; tags describe the fitted curve by direction and shape.
Compound,Potency,"activity, negative = inhibition"
COc1cccc2sc(N(CCCN(C)C)C(=O)CCS(=O)(=O)c3ccccc3)nc12,active: 8.91 µM,
CC(NC(=O)COC(=O)COc1cccc2c1OC(C)(C)C2)c1ccccc1 (stereo unspecified),,inactive: 23.4% [at 102 µM]
COc1ccc(CC(=O)Nc2ccc(S(=O)(=O)Nc3ncccn3)cc2)cc1,"inconclusive: 7.08 µM [inhibitor, single point]",
O=C(NCc1ccc(F)cc1)c1cccnc1,"inconclusive: 89.1 µM [inhibitor, single point]",
COc1ccc(N2CCN(C(=O)COC(=O)Cc3ccc(F)cc3)CC2)cc1,active: 44.7 µM,
Cn1c(=O)oc2cc(S(=O)(=O)N3CCCC(C(=O)N4CC=C(c5ccccc5)CC4)C3)ccc21 (stereo unspecified),active: 50.1 µM,
CCN1CCc2c(sc(NC(=S)NC(=O)c3ccccc3)c2C#N)C1,,inactive: 16.6% [at 0.0925 µM]
CCOC(=O)c1cc2c(ccn2C)n1CC(=O)N1CCN(c2ccccc2)CC1,"inconclusive: 79.4 µM [inhibitor, single point]",
CCCN(CCC)CCCNC(=O)C1CCC(CNS(=O)(=O)c2ccc(NC(C)=O)cc2)CC1 (stereo unspecified),,inactive: 1.15%
COc1cc(/C=N/O)ccc1Oc1cnccn1,,inactive: 18.8% [at 102 µM]
O=C(NCCSc1ncc(-c2ccc(F)cc2)[nH]1)c1ccc2c(c1)OCO2,"inconclusive: 35.5 µM [inhibitor, partial curve, poor fit]",
COc1ccc(-c2cnnc(N/N=C/c3ccc(C)o3)n2)cc1,,inactive: 22.3% [at 102 µM]
CCCc1nnc(SCC(=O)Nc2ccc(C(=O)OCC)cc2)o1,"inconclusive: 89.1 µM [inhibitor, partial curve, poor fit]",
Nc1ccc(S(=O)(=O)Nc2ccccn2)cc1,active: 25.1 µM,
CN1[C@@H]2CC[C@H]1CC(OC(c1ccccc1)c1ccccc1)C2 (stereo partly specified),inactive,
COc1ccc(C(=O)NCC(=O)OCc2c(Cl)cccc2Cl)cc1OC,"inconclusive: 31.6 µM [inhibitor, partial curve, poor fit]",
COc1ccc(Cn2c(=O)cc(C)[nH]c2=S)cc1,"inconclusive: 70.8 µM [inhibitor, partial curve, poor fit]",
CC(NC(=O)CSc1nc2ccccc2n1CCC#N)c1ccc(F)cc1 (stereo unspecified),"inconclusive: 89.1 µM [inhibitor, single point]",
CCCCn1c(N)c(N(CCOC)C(=O)c2cc(=O)[nH]c3ccccc23)c(=O)[nH]c1=O,"inconclusive: 10 µM [inhibitor, single point]",
COCC1CCN(C(=O)c2oc3c(F)cccc3c2C)C1 (stereo unspecified),"inconclusive: 28.2 µM [inhibitor, partial curve, poor fit]",
CC1(C)CC(=O)C/C(=N\NC(=O)C2CC2c2ccccc2)C1 (stereo unspecified),"inconclusive: 35.5 µM [inhibitor, full curve]",
CCOc1cc2c(cc1OCC)C(c1ccccc1)N(c1ccc(C(=O)O)cc1)C(=O)C2 (stereo unspecified),"inconclusive: 39.8 µM [inhibitor, single point]",
CCOCCCNC(=O)/C(C#N)=C/c1ccc(-c2ccc(S(=O)(=O)N3CCOCC3)cc2)o1,"inconclusive: 25.1 µM [inhibitor, single point]",
COc1ccc(-c2noc(CCC(=O)NCCc3ccccc3)n2)cc1,,inactive: -2.61% [at 102 µM]

Compound,Potency,"activity, negative = inhibition"
O=C(NCCN1CCOCC1)c1cc(-c2ccc(Br)cc2)on1,"inconclusive: 28.2 µM [inhibitor, single point]",
O=C(NCCc1ccc2c(c1)OCCO2)c1ccccn1,"inconclusive: 89.1 µM [inhibitor, single point]",
CCCCNC(=O)c1ccc(S(=O)(=O)c2ccc(Cl)cc2)c(NC(C)=O)c1,"inconclusive: 28.2 µM [inhibitor, single point]",
O=C(c1cnccn1)N1CCC[C@@]2(CCN(Cc3cc(C(F)(F)F)cc(C(F)(F)F)c3)C2)C1,,inactive: -1.84% [at 12.7 µM]
COc1cc(C(CC(=O)N2CCCC2)c2c(OC)cc(OC)c3c(-c4ccccc4)cc(=O)oc23)cc(OC)c1OC (stereo unspecified),,inactive: 7.27% [at 12.7 µM]
CCCCn1c(SCc2nc(N)nc(Nc3ccccc3C)n2)nc2ccccc2c1=O,"inconclusive: 89.1 µM [inhibitor, single point]",
S=C(Nc1ccccc1Cl)N(CCN1CCCCC1)Cc1ccco1,"inconclusive: 17.8 µM [inhibitor, single point]",
COc1ccc(OC)c(NC(=O)NCCN2CCN(c3ccccc3)CC2)c1,"inconclusive: 70.8 µM [inhibitor, single point]",
Cc1nn(C)c(C)c1CN(C)C(=O)C1(C)CC1(Br)Br (stereo unspecified),,inactive: 13.7%
CN1CCN(S(=O)(=O)c2ccc(NC(=O)COc3ccccc3Cl)cc2)CC1,,inactive: 0.069% [at 102 µM]
COC(=O)c1ccc(C2Nc3c(C)cc(C)cc3C3C=CCC32)cc1 (stereo unspecified),active: 4.47 µM,
CCN(c1ccc(NC(=O)CSCc2c(C)noc2C)cc1)C(C)C,"inconclusive: 3.16 µM [inhibitor, single point]",
O=C(CSC1=NS(=O)(=O)c2cc(Cl)ccc2N1)NCCc1ccccc1,"inconclusive: 89.1 µM [inhibitor, single point]",
COc1cccc(/C=N/n2c(-c3ccco3)nc3ccccc3c2=O)c1,,inactive: 3.55%
Cc1ccccc1C1=Nn2c(nnc2-c2ccco2)SC1,active: 28.2 µM,
CCN(C(=O)CSc1nnc(C)n1-c1cccc(C)c1)C1CCS(=O)(=O)C1 (stereo unspecified),,inactive: 12% [at 2.33 µM]
C=CCNc1nc(-c2c(C)nc3ncccn23)cs1,,inactive: 4.6% [at 0.501 µM]
Cc1ccc2c(CN3CCCCC3C)cc(=O)oc2c1 (stereo unspecified),,inactive: 8.14% [at 102 µM]
O=C(NCc1ccc2c(c1)CCN2C(=O)c1ccc(F)cc1)c1ccc(Br)o1,,inactive: -26.5%
CC(c1ccco1)N(C(=O)c1ccccc1NS(=O)(=O)c1cccc([N+](=O)[O-])c1)c1ccccn1 (stereo unspecified),active: 79.4 µM,
COc1ccccc1NC(=O)C1=C(C)Nc2c(C(=O)Nc3ccc(F)cc3)cnn2C1c1ccc(Cl)cc1 (stereo unspecified),"inconclusive: 7.08 µM [inhibitor, partial curve, poor fit]",
CCOc1cc(/C=N/N2C(=O)NC3(CCCCC3)C2=O)cc(Br)c1O,"inconclusive: 89.1 µM [inhibitor, single point]",
O=C(CSc1ccncc1)Nc1ccc2ccccc2c1,"inconclusive: 25.1 µM [inhibitor, partial curve, poor fit]",
O=C(/C(=C/c1ccncc1)n1ccnc1)c1ccc(Cl)cc1Cl,"inconclusive: 79.4 µM [inhibitor, single point]",

Compound,Potency,"activity, negative = inhibition"
Cc1ccsc1/C=N/NC(=O)c1ccc2ccccc2c1,,inactive: 21.3% [at 102 µM]
CSc1ccccc1NC(=S)N/N=C/c1cccn1Cc1cccc(C)c1,active: 25.1 µM,
Cc1cc(C)c(NC(=O)CS(=O)CC(=O)Nc2ccc(F)cc2F)c(C)c1 (stereo unspecified),,inactive: 29.2% [at 12.7 µM]
C[C@@H]1Cc2c(O)c(O)cc(O)c2C(=O)O1,,inactive: -151%
CCOc1ccc(-c2oc3ccccc3c(=O)c2O)cc1OCC,"inconclusive: 1.78 µM [inhibitor, full curve]",
CCCS(=O)(=O)c1ncc(Cl)c(C(=O)N(Cc2ccccc2)Cc2ccco2)n1,"inconclusive: 8.91 µM [inhibitor, partial curve, poor fit]",
NC(=O)COC(=O)c1ccc(Cl)c(S(=O)(=O)N(Cc2ccccc2)c2ccc(Cl)cc2)c1,"inconclusive: 79.4 µM [inhibitor, single point]",
COc1ccc(Cl)cc1NC(=O)CN(C)C(=O)c1cc2ccccc2cc1O,active: 50.1 µM,
COc1cccc(C2N(c3ccccc3)CCN2c2ccccc2)c1OC,"inconclusive: 6.31 µM [inhibitor, partial curve, poor fit]",
Cc1ccc(CN2CCN(/N=C/c3cccs3)CC2)cc1,"inconclusive: 28.2 µM [inhibitor, single point]",
O=S1(=O)c2cccc3cccc(c23)N1CCCN1CCN(c2ccc(F)cc2)CC1,,inactive: -0.33% [at 12.7 µM]
COc1ccc(S(=O)(=O)NCCSCc2ccc(Cl)cc2)cc1NC(C)=O,"inconclusive: 56.2 µM [inhibitor, partial curve, poor fit]",
O=S(=O)(c1ccc(=S)[nH]c1)N1CCCCCC1,"inconclusive: 0.562 µM [inhibitor, full curve, poor fit]",
COC(=O)c1ccc(C)c(NC(=O)c2c(-c3ccccc3)noc2C)c1,,inconclusive: -55.1% [inhibitor]
COc1ccc(N(CCOc2ccccc2)S(=O)(=O)c2ccccc2)cc1,,inactive: 9.05% [at 12.7 µM]
COc1ccc(-c2nnc(SCC(=O)N(C)C3CCS(=O)(=O)C3)n2N)cc1OC (stereo unspecified),"inconclusive: 79.4 µM [inhibitor, single point]",
COc1ccc(N2CCN(c3nc4ccccc4n3CC(=O)c3ccccc3)CC2)cc1,active: 14.1 µM,
COc1ccc(Cn2c(=O)c3c(nc(NCCO)n3C)n(C)c2=O)cc1,,inactive: -7.6%
Nc1ncnc2c1ncn2C1CCCO1 (stereo unspecified),inactive,
COc1ccc(C(C)NC(=O)c2ccc(Br)cc2)cc1OC (stereo unspecified),"inconclusive: 3.16 µM [inhibitor, partial curve, poor fit]",
CCOC(=O)C1CCN(S(=O)(=O)c2c(C)[nH]c(C)c2C(=O)N2CCCCC2)CC1,,inactive: -10.9% [at 102 µM]
CC(C)NS(=O)(=O)c1ccc(Br)c(C(=O)OC(C)C(=O)NC2CCCCC2C)c1 (stereo unspecified),"inconclusive: 89.1 µM [inhibitor, single point]",
NC(=O)c1ccc[n+](CC(=O)c2ccccc2)c1,"inconclusive: 70.8 µM [inhibitor, partial curve]",
